Where two headings read alike, the source gives them in different places. These are yes or no findings as the source states them, for the method shown. For some of these results: In cells and extracts the contact can be indirect. Some results given as binding are weak or reduced against the parent protein; the word gives no strength. For some of these results: Where a sequence is shown, tags or fusion partners need not be part of it.
T1: GST-FCHO1 μHD (human) (UniProt O14526)
T1 sequence: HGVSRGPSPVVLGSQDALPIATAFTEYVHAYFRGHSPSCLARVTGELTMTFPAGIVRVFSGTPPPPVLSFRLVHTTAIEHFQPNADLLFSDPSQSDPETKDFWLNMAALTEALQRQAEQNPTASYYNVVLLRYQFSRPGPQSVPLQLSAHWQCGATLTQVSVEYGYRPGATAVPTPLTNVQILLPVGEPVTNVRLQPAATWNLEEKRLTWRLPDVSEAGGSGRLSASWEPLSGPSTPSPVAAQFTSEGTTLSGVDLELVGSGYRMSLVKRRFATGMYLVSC

Amino acid sequences for entries named in this document (tags omitted).
UniProt Q15811: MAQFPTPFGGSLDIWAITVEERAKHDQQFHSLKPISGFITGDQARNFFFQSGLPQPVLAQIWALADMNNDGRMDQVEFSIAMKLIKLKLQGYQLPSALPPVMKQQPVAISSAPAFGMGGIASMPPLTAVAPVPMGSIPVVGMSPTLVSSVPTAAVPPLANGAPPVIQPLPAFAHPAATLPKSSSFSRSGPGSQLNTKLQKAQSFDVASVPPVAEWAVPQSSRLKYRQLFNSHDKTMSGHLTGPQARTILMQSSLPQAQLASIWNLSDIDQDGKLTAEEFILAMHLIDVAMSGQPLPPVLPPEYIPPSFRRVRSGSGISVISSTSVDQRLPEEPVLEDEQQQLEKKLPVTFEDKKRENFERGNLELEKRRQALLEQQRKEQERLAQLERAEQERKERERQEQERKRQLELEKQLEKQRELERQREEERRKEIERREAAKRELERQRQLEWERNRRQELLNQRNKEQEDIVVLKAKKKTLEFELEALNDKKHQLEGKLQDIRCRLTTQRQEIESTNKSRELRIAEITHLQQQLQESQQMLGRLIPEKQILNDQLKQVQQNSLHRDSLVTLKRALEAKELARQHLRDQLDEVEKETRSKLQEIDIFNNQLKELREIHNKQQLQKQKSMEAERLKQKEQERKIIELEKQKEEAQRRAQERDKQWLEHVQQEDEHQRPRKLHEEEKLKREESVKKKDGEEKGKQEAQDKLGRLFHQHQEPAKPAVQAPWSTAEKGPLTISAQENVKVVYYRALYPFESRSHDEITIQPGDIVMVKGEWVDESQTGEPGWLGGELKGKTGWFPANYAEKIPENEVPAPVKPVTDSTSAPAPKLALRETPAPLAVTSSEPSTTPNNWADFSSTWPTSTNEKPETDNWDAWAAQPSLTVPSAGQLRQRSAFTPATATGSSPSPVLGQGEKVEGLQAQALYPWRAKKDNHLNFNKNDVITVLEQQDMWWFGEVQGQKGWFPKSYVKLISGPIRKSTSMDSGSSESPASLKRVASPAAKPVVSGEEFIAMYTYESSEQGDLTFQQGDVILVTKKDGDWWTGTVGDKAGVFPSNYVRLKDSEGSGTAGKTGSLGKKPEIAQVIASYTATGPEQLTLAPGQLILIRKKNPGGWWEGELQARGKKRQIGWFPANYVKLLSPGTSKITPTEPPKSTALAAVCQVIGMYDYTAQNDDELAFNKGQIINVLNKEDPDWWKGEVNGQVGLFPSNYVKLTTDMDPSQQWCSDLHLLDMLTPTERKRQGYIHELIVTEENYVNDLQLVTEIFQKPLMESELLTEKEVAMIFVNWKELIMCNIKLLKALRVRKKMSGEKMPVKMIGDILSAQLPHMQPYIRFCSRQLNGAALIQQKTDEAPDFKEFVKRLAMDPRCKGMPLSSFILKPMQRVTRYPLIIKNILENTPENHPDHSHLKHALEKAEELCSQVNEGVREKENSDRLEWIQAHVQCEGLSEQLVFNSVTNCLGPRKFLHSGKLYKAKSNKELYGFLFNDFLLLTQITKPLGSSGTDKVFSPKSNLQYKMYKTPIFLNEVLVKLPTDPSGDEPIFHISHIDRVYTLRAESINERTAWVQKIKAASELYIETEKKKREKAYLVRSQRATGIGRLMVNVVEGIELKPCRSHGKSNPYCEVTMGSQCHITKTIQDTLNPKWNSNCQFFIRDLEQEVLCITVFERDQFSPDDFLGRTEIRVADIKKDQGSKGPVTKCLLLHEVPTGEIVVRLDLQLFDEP

T2: GST-EPS15 (615–637)-FCHO1 μHD chimera (human) (UniProt P42566+O14526)
T2 sequence: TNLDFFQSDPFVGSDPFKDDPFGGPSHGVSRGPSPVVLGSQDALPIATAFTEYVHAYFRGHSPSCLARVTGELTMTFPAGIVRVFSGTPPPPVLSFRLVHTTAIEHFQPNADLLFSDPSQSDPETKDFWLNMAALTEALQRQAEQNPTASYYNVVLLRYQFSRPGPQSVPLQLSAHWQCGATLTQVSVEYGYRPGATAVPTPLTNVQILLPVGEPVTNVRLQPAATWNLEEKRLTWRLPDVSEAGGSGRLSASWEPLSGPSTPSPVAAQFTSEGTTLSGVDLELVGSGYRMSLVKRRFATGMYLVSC

T3: GST-EPS15 (615–637; 623DPF→APA)-FCHO1 μHD chimera (human) (UniProt P42566+O14526)
T3 sequence: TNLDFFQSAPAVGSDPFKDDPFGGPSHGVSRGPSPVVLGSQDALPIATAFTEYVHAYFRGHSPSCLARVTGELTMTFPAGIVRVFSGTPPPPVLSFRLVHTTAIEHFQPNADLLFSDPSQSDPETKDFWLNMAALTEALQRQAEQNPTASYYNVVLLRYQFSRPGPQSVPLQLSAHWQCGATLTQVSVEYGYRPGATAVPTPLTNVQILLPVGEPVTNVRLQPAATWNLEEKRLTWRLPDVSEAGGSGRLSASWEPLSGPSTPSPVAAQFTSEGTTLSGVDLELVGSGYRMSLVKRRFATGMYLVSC

T4: GST-ΔEPS15 (626–637)-FCHO1 μHD chimera (human) (UniProt P42566+O14526)
T4 sequence: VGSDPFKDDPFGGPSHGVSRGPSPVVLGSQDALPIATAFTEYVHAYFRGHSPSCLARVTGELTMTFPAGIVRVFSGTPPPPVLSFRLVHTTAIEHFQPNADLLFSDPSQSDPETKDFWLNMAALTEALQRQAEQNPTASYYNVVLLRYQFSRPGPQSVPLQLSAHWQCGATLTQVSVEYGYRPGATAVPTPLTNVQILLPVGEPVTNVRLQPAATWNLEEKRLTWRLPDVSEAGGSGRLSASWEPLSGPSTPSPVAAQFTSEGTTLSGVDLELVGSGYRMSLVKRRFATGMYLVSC

T5: GST-FCHO1 μHD R872A + S874G (human) (UniProt O14526)
T5 sequence: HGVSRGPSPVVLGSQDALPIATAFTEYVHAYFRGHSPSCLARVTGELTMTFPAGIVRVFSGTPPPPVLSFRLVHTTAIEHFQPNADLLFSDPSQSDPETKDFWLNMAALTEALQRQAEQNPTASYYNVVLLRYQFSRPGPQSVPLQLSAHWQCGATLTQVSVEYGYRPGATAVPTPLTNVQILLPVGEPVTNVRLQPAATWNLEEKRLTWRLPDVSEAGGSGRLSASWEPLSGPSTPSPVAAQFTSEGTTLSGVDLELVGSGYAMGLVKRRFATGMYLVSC

T6: GST-FCHO1 μHD S732D (human) (UniProt O14526)
T6 sequence: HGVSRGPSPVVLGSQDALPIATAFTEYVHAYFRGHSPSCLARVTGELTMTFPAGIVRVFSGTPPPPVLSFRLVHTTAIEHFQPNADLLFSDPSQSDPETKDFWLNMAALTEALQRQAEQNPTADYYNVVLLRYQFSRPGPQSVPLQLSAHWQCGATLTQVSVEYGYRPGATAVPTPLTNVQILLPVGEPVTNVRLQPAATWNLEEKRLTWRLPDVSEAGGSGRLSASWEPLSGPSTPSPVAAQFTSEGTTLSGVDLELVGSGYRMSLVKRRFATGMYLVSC

T7: GST-FCHO1 μHD N735A + R740A (human) (UniProt O14526)
T7 sequence: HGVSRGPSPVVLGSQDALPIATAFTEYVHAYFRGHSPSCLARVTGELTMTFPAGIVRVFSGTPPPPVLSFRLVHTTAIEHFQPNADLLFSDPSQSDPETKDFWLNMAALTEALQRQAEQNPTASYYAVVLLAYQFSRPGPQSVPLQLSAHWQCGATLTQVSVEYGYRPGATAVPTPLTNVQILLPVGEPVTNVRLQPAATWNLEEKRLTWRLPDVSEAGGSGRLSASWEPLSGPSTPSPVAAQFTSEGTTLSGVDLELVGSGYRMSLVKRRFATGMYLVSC

T8: FCHO1 μHD A629E (for ITC) (human, UniProt O14526 609-889, A629E)
T8 sequence (looked up): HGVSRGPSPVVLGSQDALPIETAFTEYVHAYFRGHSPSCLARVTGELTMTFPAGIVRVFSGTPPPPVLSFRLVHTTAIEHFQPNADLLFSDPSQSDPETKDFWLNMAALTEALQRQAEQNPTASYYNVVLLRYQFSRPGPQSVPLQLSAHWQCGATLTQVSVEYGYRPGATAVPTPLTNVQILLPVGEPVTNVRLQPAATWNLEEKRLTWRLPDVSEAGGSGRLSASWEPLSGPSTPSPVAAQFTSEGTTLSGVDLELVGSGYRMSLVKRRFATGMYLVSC

T9: FCHO1 μHD K877E + R879A (for ITC) (human, UniProt O14526 609-889, K877E | R879A)
T9 sequence (looked up): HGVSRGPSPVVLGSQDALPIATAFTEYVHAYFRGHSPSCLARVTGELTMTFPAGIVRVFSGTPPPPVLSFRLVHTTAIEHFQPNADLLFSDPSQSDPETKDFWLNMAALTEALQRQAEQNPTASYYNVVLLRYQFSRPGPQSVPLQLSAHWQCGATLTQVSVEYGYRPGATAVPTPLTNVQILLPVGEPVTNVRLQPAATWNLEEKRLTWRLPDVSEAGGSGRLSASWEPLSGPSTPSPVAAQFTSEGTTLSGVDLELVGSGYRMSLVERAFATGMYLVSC

T10: FCHO1 μHD P627D + A629E (for ITC) (human, UniProt O14526 609-889, P627D | A629E)
T10 sequence (looked up): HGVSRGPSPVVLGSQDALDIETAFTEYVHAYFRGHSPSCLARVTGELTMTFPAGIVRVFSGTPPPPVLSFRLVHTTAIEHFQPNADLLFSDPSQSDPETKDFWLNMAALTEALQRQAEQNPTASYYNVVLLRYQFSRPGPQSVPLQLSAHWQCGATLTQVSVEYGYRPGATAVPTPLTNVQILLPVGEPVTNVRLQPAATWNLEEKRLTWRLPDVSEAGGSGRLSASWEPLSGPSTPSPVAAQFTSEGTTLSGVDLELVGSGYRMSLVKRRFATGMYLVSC


Legend:
[1] = target: T1, GST-FCHO1 μHD (human); experiment: pull-down; GST-μHD fusion proteins on glutathione-Sepharose, cytosolic partner proteins detected by blot; Figures S1E, S3A, S3B, S3E (legends not shown, source of the extract not told); only the target purified
[2] = target: T2, GST-EPS15 (615–637)-FCHO1 μHD chimera (human); experiment: pull-down; HeLa cell lysate with 250 μg (Figure 3F: the indicated amount) of GST or GST-μHD fusion proteins immobilised on glutathione-Sepharose; supernatant and pellet stained or immunoblotted; Figures 1G, 3E, 3F; only the target purified
[3] = target: T3, GST-EPS15 (615–637; 623DPF→APA)-FCHO1 μHD chimera (human); experiment: as above
[4] = target: T4, GST-ΔEPS15 (626–637)-FCHO1 μHD chimera (human); experiment: as above
[5] = target: T1, GST-FCHO1 μHD (human); experiment: as above
[6] = target: T5, GST-FCHO1 μHD R872A + S874G (human); experiment: pull-down; GST-μHD fusion proteins on glutathione-Sepharose, cytosolic partner proteins detected by blot; Figures S1E, S3A, S3B, S3E (legends not shown, source of the extract not told); only the target purified
[7] = target: T6, GST-FCHO1 μHD S732D (human); experiment: as above
[8] = target: T2, GST-EPS15 (615–637)-FCHO1 μHD chimera (human); experiment: pull-down; HeLa cell lysate with 250 μg (Figure 3F: the indicated amount) of GST or GST-μHD fusion proteins immobilised on glutathione-Sepharose; supernatant and pellet stained or immunoblotted; Figures 1G, 3E, 3F; only the target purified; remark: listed apart in the source
[9] = target: T3, GST-EPS15 (615–637; 623DPF→APA)-FCHO1 μHD chimera (human); experiment: as above; remark: listed apart in the source
[10] = target: T7, GST-FCHO1 μHD N735A + R740A (human); experiment: as above
[11] = target: T4, GST-ΔEPS15 (626–637)-FCHO1 μHD chimera (human); experiment: as above; remark: listed apart in the source
[12] = target: T1, GST-FCHO1 μHD (human); experiment: as above; remark: listed apart in the source
[13] = target: T8, FCHO1 μHD A629E (for ITC); experiment: ITC; repeated injection of EPS15 peptides into a temperature-controlled solution of μHD, Nano ITC instrument (TA Instruments); minimum of four runs; both purified
[14] = target: T9, FCHO1 μHD K877E + R879A (for ITC); experiment: as above
[15] = target: T10, FCHO1 μHD P627D + A629E (for ITC); experiment: as above

binding [1]	binding [2]	binding [3]	binding [4]	binding [5]	binding [6]	binding [7]	binding [8]	binding [9]	binding [10]	binding [11]	binding [12]	binding [13]	binding [14]	binding [15]	Molecule
binds	no binding	binds	binds	binds											intersectin 1 (from UniProt Q15811 1-1721)
binds					binds	binds	no binding	binds	binds	binds	binds				EPS15 (epidermal growth factor pathway substrate 15) (natural protein, human (endogenous in HeLa), UniProt P42566 1-896, looked up, human EPS15, endogenous protein; also called native EPS15 dimer/tetramer) MAAAAQLSLTQLSSGNPVYEKYYRQVDTGNTGRVLASDAAAFLKKSGLPDLILGKIWDLADTDGKGILNKQEFFVALRLVACAQNGLEVSLSSLNLAVPPPRFHDTSSPLLISGTSAAELPWAVKPEDKAKYDAIFDSLSPVNGFLSGDKVKPVLLNSKLPVDILGRVWELSDIDHDGMLDRDEFAVAMFLVYCALEKEPVPMSLPPALVPPSKRKTWVVSPAEKAKYDEIFLKTDKDMDGFVSGLEVREIFLKTGLPSTLLAHIWSLCDTKDCGKLSKDQFALAFHLISQKLIKGIDPPHVLTPEMIPPSDRASLQKNIIGSSPVADFSAIKELDTLNNEIVDLQREKNNVEQDLKEKEDTIKQRTSEVQDLQDEVQRENTNLQKLQAQKQQVQELLDELDEQKAQLEEQLKEVRKKCAEEAQLISSLKAELTSQESQISTYEEELAKAREELSRLQQETAELEESVESGKAQLEPLQQHLQDSQQEISSMQMKLMEMKDLENHNSQLNWCSSPHSILVNGATDYCSLSTSSSETANLNEHVEGQSNLESEPIHQESPARSSPELLPSGVTDENEVTTAVTEKVCSELDNNRHSKEEDPFNVDSSSLTGPVADTNLDFFQSDPFVGSDPFKDDPFGKIDPFGGDPFKGSDPFASDCFFRQSTDPFATSSTDPFSAANNSSITSVETLKHNDPFAPGGTVVAASDSATDPFASVFGNESFGGGFADFSTLSKVNNEDPFRSATSSSVSNVVITKNVFEETSVKSEDEPPALPPKIGTPTRPCPLPPGKRSINKLDSPDPFKLNDPFQPFPGNDSPKEKDPEIFCDPFTSATTTTNKEADPSNFANFSAYPSEEDMIEWAKRESEREEEQRLARLNQQEQEDLELAIALSKSEISEA
												no binding (tested: KD > 300 μM)	no binding (tested: KD > 300 μM)	no binding (tested: KD > 300 μM)	NLDFFQSDPFVGSDPFKDDPFGK (peptide, UniProt P42566 616-638) [EPS15 616–638 peptide]

Reference: paper PMC4921775, “Transient Fcho1/2⋅Eps15/R⋅AP-2 Nanoclusters Prime the AP-2 Clathrin Adaptor for Cargo Binding” (Developmental Cell, 2016)
